Experimental data reported in publication PMC5673899, “Structural basis for receptor recognition of pollen tube attraction peptides” (Nature Communications, 2017).
Residue numbers refer to the chain shown, from its start. No constants are given. Whether binding was seen depends on the method and setting. Some entries that bind do so weakly or less than the wild type.

By UniProt entry, the sequences of proteins in these tests, tags left out. Residues count along the entry.
UniProt Q8VZG8, residues 44-707: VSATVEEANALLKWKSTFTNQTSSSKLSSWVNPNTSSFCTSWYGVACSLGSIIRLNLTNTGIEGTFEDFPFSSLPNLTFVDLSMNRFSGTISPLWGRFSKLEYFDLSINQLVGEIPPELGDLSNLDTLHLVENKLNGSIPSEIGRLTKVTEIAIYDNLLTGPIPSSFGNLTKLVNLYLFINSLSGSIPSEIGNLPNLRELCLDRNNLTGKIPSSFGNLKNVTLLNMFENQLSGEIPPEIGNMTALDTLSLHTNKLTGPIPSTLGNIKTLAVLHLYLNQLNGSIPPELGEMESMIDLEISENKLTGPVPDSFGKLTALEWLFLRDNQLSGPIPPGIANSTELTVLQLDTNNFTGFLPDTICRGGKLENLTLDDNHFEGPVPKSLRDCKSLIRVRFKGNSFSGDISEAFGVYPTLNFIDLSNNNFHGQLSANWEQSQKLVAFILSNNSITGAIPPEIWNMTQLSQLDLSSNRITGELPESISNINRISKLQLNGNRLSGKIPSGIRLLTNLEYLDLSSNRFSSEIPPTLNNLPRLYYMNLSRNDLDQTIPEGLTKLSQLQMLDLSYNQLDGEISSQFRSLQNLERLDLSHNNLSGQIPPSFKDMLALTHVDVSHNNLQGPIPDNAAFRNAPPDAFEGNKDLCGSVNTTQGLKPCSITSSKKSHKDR
UniProt Q4VP10, residues 21-91: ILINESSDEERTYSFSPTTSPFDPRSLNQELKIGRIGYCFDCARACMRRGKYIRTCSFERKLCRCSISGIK
UniProt P0CAY6, residues 20-90: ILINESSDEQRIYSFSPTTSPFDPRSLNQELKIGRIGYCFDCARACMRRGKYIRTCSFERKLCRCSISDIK

Key:
[1] = molecular target: T1, AtPRK6^LRR, extracellular LRR domain of AtPRK6 (residues 1-262) (Arabidopsis thaliana) (UniProt Q3E991); assay: crystal structure; AtPRK6^LRR-AtLURE1.2 complex, two crystal forms (1.85 Å and 2.10 Å); 0.2 M MgCl2, 0.1 M Bis-Tris pH 5.5, 25% PEG 3350, 18 °C; both purified
T1 sequence: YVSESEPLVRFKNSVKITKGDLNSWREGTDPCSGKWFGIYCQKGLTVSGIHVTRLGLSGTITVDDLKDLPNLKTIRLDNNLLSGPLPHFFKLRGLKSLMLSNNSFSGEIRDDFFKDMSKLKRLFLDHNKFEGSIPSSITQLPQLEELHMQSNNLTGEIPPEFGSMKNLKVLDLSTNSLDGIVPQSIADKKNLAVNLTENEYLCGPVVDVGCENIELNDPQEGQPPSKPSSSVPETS

[2] = molecular target: T2, AtPRK3^LRR (residues 1-241) (Arabidopsis thaliana) (UniProt Q9M1L7); assay: SEC; purified LRR protein and AtLURE1.2 mixed at a molar ratio of about 1:3, 4 °C 30 min; gel filtration (Hiload 200) in 10 mM Bis-Tris pH 6.0, 100 mM NaCl; fractions on SDS-PAGE; both purified
T2 sequence: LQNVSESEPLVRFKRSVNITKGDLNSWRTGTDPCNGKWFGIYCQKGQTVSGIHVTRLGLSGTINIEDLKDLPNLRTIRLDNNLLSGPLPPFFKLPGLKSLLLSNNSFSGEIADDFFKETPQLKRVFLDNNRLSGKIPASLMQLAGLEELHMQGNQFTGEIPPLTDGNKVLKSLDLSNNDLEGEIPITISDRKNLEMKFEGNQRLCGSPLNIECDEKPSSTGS

[3] = molecular target: T1, AtPRK6^LRR, extracellular LRR domain of AtPRK6 (residues 1-262) (Arabidopsis thaliana); assay: as above
[4] = molecular target: T3, MIK1^LRR (residues 1-633) (Arabidopsis thaliana) (UniProt Q9M0G7); assay: as above
T3 sequence: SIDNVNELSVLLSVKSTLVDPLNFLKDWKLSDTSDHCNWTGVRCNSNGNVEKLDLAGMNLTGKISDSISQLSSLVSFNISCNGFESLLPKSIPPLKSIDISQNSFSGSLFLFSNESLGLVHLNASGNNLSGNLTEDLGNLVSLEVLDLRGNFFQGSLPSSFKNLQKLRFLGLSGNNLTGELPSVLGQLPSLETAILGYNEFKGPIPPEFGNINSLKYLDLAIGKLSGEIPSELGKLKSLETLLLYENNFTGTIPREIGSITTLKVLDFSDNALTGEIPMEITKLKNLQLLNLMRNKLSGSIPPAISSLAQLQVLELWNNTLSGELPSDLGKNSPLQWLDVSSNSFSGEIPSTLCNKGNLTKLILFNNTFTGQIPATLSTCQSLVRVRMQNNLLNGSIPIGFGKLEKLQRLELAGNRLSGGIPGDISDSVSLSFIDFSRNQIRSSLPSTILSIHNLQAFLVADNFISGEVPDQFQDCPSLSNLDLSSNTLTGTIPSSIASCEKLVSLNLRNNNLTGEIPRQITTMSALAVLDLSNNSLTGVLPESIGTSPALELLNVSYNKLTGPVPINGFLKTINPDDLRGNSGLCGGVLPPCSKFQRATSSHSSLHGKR

[5] = molecular target: MIK2^LRR (residues 1-707) (Arabidopsis thaliana) (UniProt Q8VZG8); assay: as above
[6] = molecular target: T2, AtPRK3^LRR (residues 1-241) (Arabidopsis thaliana); assay: condition: about 0.9 mM AtLURE1.2 injected into 0.08 mM AtPRK3^LRR; ITC; ITC200, 25 °C, 200 mM HEPES pH 7.0, 100 mM NaCl; about 0.9 mM AtLURE1.2 injected (20 x 2 μl) into 0.08 mM LRR protein in the cell; both purified
[7] = molecular target: T3, MIK1^LRR (residues 1-633) (Arabidopsis thaliana); assay: condition: similar concentration (about 0.9 mM AtLURE1.2 into 0.08 mM LRR protein); ITC; ITC200, 25 °C, 200 mM HEPES pH 7.0, 100 mM NaCl; about 0.9 mM AtLURE1.2 injected (20 x 2 μl) into 0.08 mM LRR protein in the cell; both purified
[8] = molecular target: MIK2^LRR (residues 1-707) (Arabidopsis thaliana) (UniProt Q8VZG8); assay: as above
[9] = molecular target: T2, AtPRK3^LRR (residues 1-241) (Arabidopsis thaliana); assay: pull-down; His-tagged LRR protein mixed with excess AtLURE1.2 peptide and held on Ni-NTA resin, on ice 30 min; washed five times with 25 mM Tris pH 8.0, 150 mM NaCl, 15 mM imidazole; eluted with 250 mM imidazole; SDS-PAGE, Coomassie; both purified
[10] = molecular target: T4, AtPRK4^LRR (residues 1-277) (Arabidopsis thaliana) (UniProt Q9LJY0); assay: as above
T4 sequence: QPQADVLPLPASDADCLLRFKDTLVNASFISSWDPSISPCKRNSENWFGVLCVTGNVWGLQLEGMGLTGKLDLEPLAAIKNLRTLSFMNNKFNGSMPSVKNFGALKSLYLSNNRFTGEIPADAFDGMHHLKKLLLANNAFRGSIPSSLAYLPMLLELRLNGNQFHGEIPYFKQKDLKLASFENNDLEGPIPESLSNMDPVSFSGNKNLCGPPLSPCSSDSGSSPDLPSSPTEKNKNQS

[11] = molecular target: T5, AtPRK5^LRR (residues 1-279) (Arabidopsis thaliana) (UniProt Q9LPT1); assay: as above
T5 sequence: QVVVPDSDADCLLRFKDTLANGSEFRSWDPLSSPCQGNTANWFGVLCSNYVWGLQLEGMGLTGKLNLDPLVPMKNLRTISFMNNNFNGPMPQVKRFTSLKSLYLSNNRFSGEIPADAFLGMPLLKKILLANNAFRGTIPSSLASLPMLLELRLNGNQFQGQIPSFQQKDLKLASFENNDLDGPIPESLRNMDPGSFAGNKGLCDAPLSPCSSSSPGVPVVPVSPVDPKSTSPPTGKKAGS

[12] = molecular target: T1, AtPRK6^LRR, extracellular LRR domain of AtPRK6 (residues 1-262) (Arabidopsis thaliana); assay: as above
[13] = molecular target: T3, MIK1^LRR (residues 1-633) (Arabidopsis thaliana); assay: as above
[14] = molecular target: MIK2^LRR (residues 1-707) (Arabidopsis thaliana) (UniProt Q8VZG8); assay: as above
[15] = molecular target: T1, AtPRK6^LRR, extracellular LRR domain of AtPRK6 (residues 1-262) (Arabidopsis thaliana); assay: SEC; AtPRK6^LRR co-expressed with the AtLURE1 peptide in High Five cells; secreted complex digested with Prescission Protease and purified (Ni-NTA, size-exclusion chromatography)

B1: AtLURE1.2, mature form (residues 20-90) (peptide, UniProt Q4VP08 20-90, looked up)
chain: TLINGSSDEERTYSFSPTTSPFDPRSLNQELKIGRIGYCFDCARACMRRGKYIRTCSFERKLCRCSISDIK
notes: AtLURE1.2, defensin-like cysteine-rich peptide of Arabidopsis thaliana, mature form, residues 20-90; Cloned in pFastBac-1 behind a modified N-terminal hemolin signal peptide and a 6xHis-SUMO tag; Likely glycosylated (apparent 14 kDa); also called AtLURE1.2 peptide; source: also co-expressed with AtPRK6^LRR for the crystallised complex; not shown: His6, N-terminal, cleaved; SUMO, N-terminal, …
binding [1]: binds
binding [2]: no binding
binding [3]: binds
binding [4]: no binding
binding [5]: no binding
binding [6]: no binding
binding [7]: no binding
binding [8]: no binding
binding [9]: no binding
binding [10]: no binding
binding [11]: no binding
binding [12]: binds
binding [13]: no binding
binding [14]: no binding

B2: AtLURE1.1, mature form (residues 20-94) (peptide, UniProt Q4VP09 20-94)
chain: ILIKESSEEERIYPFNPVASPFDPRSLNQILKIGKIGYCFDCARACMRRDRYIRTCSFERKLCRCSYSHIHHTHG
binding [15]: binds

B3: AtLURE1.3, mature form (residues 21-91) (peptide, UniProt Q4VP10 21-91)
chain: B1 chain with T1I, G5E, D69G
binding [15]: binds

B4: AtLURE1.4, mature form (residues 20-90) (peptide, UniProt P0CAY6 20-90)
chain: B1 chain with T1I, G5E, E10Q, T12I
binding [15]: binds

B5: AtPRK6^LRR, extracellular LRR domain of AtPRK6 (residues 1-262) (domain or fragment, UniProt Q3E991 27-262)
chain: T1 sequence
binding [3]: no binding
